Experimental data as given in publication PMC11995724, “Antibiotic target discovery by integrated phenotypic and activity-based profiling of electrophilic fragments” (Cell chemical biology, 2025).
Among all 3,200 compounds or so, about 110 (3.4%) showed an effect of 50% or more. The list shows a part of the results.

system: T1, V. cholerae SAD30; parameters: species or system S. aureus MSSA476 (TSB) or V. cholerae SAD30 (LB); 384-well bacterial growth screen at 25 uM, OD600 relative to DMSO control; settings: relative growth, OD600, LB; 25 µM; inhibitor
T1 construct: SAD30

| Structure (SMILES) | % of control remaining |
| --- | --- |
| O=C(CCl)NCCc1cccc(Cl)c1 [5-O05, 2-chloro-N-[2-(3-chlorophenyl)ethyl]acetamide] | 115.33% |
| C=CC(=O)NCCN(C)S(=O)(=O)c1cccs1 [2-A09, N-[2-(N-methylthiophene-2-sulfonamido)ethyl]prop-2-enamide] | 91.8942% |
| CCN(CC)C(=O)c1cccc(NC(=O)CCl)c1 [5-I03, 3-(2-chloroacetamido)-N,N-diethylbenzamide] | 111.296% |
| C=CC(=O)NCc1ccc(N2CCCC(C(N)=O)C2)cc1 (stereo not shown) [1-P19, 1-{4-[(prop-2-enamido)methyl]phenyl}piperidine-3-carboxamide] | 98.2063% |
| COc1ccc(CCN2C(=O)C=CC2=O)cc1 [10-A05, 1-[2-(4-methoxyphenyl)ethyl]-2,5-dihydro-1H-pyrrole-2,5-dione] | 35.8465% |
| O=C(CCl)NC(c1ccc(F)c(Cl)c1)C(F)(F)F (stereo not shown) [7-D16, 2-chloro-N-[1-(3-chloro-4-fluorophenyl)-2,2,2-trifluoroethyl]acetamide] | 75.2024% |
| O=C(Nc1ccc(F)cc1)N1CCSSCC1 [10-D21, N-(4-fluorophenyl)-1,2,5-dithiazepane-5-carboxamide] | 104.578% |
| CCSc1nnc(NC(=O)CCl)s1 [5-N22, 2-chloro-N-[5-(ethylsulfanyl)-1,3,4-thiadiazol-2-yl]acetamide] | 107.429% |
| Cl.O=C(CCl)N1CCN(CCOc2ccccc2)CC1 [4-H14, 2-chloro-1-[4-(2-phenoxyethyl)piperazin-1-yl]ethan-1-one hydrochloride] | 99.3746% |
| Cc1nc2cc(NC(=O)C(C#N)=Cc3ccco3)ccc2n1C [9-B18, 2-cyano-N-(1,2-dimethyl-1H-1,3-benzodiazol-5-yl)-3-(furan-2-yl)prop-2-enamide] | 87.7634% |
| COc1cc(Cl)c(C)cc1NC(=O)C(C#N)=CC=Cc1ccccc1 [8-A21, N-(4-chloro-2-methoxy-5-methylphenyl)-2-cyano-5-phenylpenta-2,4-dienamide] | 93.0659% |
| C=CC(=O)NCc1ccnc(N2CCOCC2)c1 [1-C09, N-{[2-(morpholin-4-yl)pyridin-4-yl]methyl}prop-2-enamide] | 91.1809% |
| CC(Cl)C(=O)Nc1cc(C(C)(C)C)nn1-c1ccccc1 (stereo not shown) [4-H11, N-(3-tert-butyl-1-phenyl-1H-pyrazol-5-yl)-2-chloropropanamide] | 95.579% |
| CC(Cl)C(=O)Nc1ccc([N+](=O)[O-])cc1 (stereo not shown) [4-I18, 2-chloro-N-(4-nitrophenyl)propanamide] | 95.4065% |
| CC(Cl)C(=O)N1CCc2ncccc2C1 (stereo not shown) [7-I19, 2-chloro-1-(5,6,7,8-tetrahydro-1,6-naphthyridin-6-yl)propan-1-one] | 77.5814% |
| C=CC(=O)N1CCC(C(=O)NCCO)CC1 [3-C18, N-(2-hydroxyethyl)-1-(prop-2-enoyl)piperidine-4-carboxamide] | 101.441% |

| Structure (SMILES) | % of control remaining |
| --- | --- |
| CCOC(=O)c1ccc(NC(=O)CCl)cc1 [4-E17, ethyl 4-(2-chloroacetamido)benzoate] | 94.3714% |
| Cc1cccc(NC(=O)[C@@H]2CCCN2C(=O)CCl)n1 [5-C06, (2S)-1-(2-chloroacetyl)-N-(6-methylpyridin-2-yl)pyrrolidine-2-carboxamide] | 101.208% |
| COCCNC(=O)C(C#N)=Cc1c(F)cccc1Cl [8-O21, 3-(2-chloro-6-fluorophenyl)-2-cyano-N-(2-methoxyethyl)prop-2-enamide] | 76.7505% |
| C=CC(=O)Nc1cc(C)nn1-c1ccccc1F [2-C15, N-[1-(2-fluorophenyl)-3-methyl-1H-pyrazol-5-yl]prop-2-enamide] | 95.1365% |
| O=C(CCl)Nc1cc(-n2cnnn2)ccc1Cl [6-A05, 2-chloro-N-[2-chloro-5-(1H-1,2,3,4-tetrazol-1-yl)phenyl]acetamide] | 99.0426% |
| C=CC(=O)NCc1nc(C2CC2)oc1C [2-P13, N-[(2-cyclopropyl-5-methyl-1,3-oxazol-4-yl)methyl]prop-2-enamide] | 95.9085% |
| CCN(C(=O)CCl)C1CCCCC1 [5-D11, 2-chloro-N-cyclohexyl-N-ethylacetamide] | 95.9966% |
| Cc1nnnn1CCNC(=O)C(C)Cl (stereo not shown) [7-A19, 2-chloro-N-[2-(5-methyl-1H-1,2,3,4-tetrazol-1-yl)ethyl]propanamide] | 87.2295% |
| O=C(CCl)Nc1ccc(OCc2ccccc2)cc1 [6-K07, N-[4-(benzyloxy)phenyl]-2-chloroacetamide] | 91.6106% |
| C=CC(=O)Nc1cc(OC)ccc1C(=O)N(C)OC [1-J14, N,4-dimethoxy-N-methyl-2-(prop-2-enamido)benzamide] | 105.005% |
| O=C(CCl)NCC(c1ccccc1)c1c[nH]c2ccccc12 (stereo not shown) [6-C08, 2-chloro-N-[2-(1H-indol-3-yl)-2-phenylethyl]acetamide] | 89.6388% |
| CNC(=O)C(C#N)=Cc1cc(C)n(-c2cccc3ccccc23)c1C [9-P16, 2-cyano-3-[2,5-dimethyl-1-(naphthalen-1-yl)-1H-pyrrol-3-yl]-N-methylprop-2-enamide] | 52.0054% |
| Cc1cnc(C(C)N2CCN(C(=O)C(C)Cl)CC2)s1 (stereo not shown) [7-M03, 2-chloro-1-{4-[1-(5-methyl-1,3-thiazol-2-yl)ethyl]piperazin-1-yl}propan-1-one] | 92.9126% |
| COC(=O)Cc1ccc(C(=O)CCl)s1 [10-L12, methyl 2-[5-(2-chloroacetyl)thiophen-2-yl]acetate] | 59.5363% |
| CC(NC(=O)C(C#N)=Cc1ccc(-c2ccccc2)cc1)c1ccccc1 (stereo not shown) [8-J11, 3-{[1,1'-biphenyl]-4-yl}-2-cyano-N-(1-phenylethyl)prop-2-enamide] | 57.5799% |
